Measurements taken from the supplement of paper PMC12217912.
Some of the results follow. Sequences were assembled here from the parent chain. Values near 0.05 are background.

B1: TEV protease; numbered along this chain (parent)
chain: MGESLFKGPRDYNPISSSICHLTNESDGHTTSLYGIGFGPFIITNKHLFRRNNGTLVVQSLHGVFKVKDTTTLQQHLVDGRDMIIIRMPKDFPPFPQKLKFREPQREERICLVTTNFQTKSMSSMVSDTSCTFPSGDGIFWKHWIQTKDGQCGSPLVSTRDGFIVGIHSASNFTNTNNYFTSVPKNFMELLTNQEAQQWVSGWRLNADSVLWGGHKVFMVKPEEPFQPVKEATQL

Variants of: B1
Experiment: raw area under fraction-flipped curve 0-4 h after induction (AUC4h, not background-subtracted), DNA-recorder readout of cleavage of the substrate (dimensionless); higher = more cleavage of the substrate by the protease variant
Settings: temperature: 34 °C; time window: 0-4 h after rhamnose induction
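Further: Bxb1 expression induced with 0.2% (w/v) L-rhamnose at OD600 near 0.5, cultures sampled hourly, flipped fraction per protease–substrate barcode pair counted by paired-end Illumina sequencing.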

Row | Variant | area with substrate ENLYEQS | area with substrate ENLYIQS | area with substrate ENLYKQS | area with substrate ENLYMQS | area with substrate ENLYNQS | area with substrate ENLYQQS | area with substrate ENLYRQS | area with substrate ENLYVQS | area with substrate ENLYWQS | area with substrate ENLYGQS | area with substrate ENLYLQS | area with substrate ENLYPQS | area with substrate ENLYSQS | area with substrate ENLYYQS | area with substrate ENLYDQS | area with substrate ENLYHQS | area with substrate ENLYTQS
1 | L77G | 0.0676 | 0.0664 | 0.0233 | 0.0577 | 0.0642 | 0.104 | 0.0706 | 0.0667 | 0.053 | – | – | – | – | – | – | – | –
2 | L190R | 0.065 | – | 0.0635 | 0.0751 | 0.0698 | 0.0693 | 0.0529 | 0.0712 | – | 0.0529 | 0.0389 | 0.0687 | 0.0664 | 0.0691 | – | – | –
3 | P225A | 0.0685 | 0.137 | 0.0515 | 0.092 | 0.0719 | 0.0648 | – | 0.144 | 0.0771 | 0.0548 | 0.101 | 0.066 | 0.0855 | – | 0.0779 | 0.0698 | 0.14
4 | G166L | 0.0336 | 0.0458 | – | – | – | 0.0686 | 0.0467 | – | 0.0436 | 0.0608 | – | – | – | – | – | – | –
5 | F38G | 0.0386 | – | – | 0.0527 | – | – | 0.0606 | 0.0728 | – | – | 0.0414 | 0.0423 | – | 0.0331 | – | 0.046 | –
6 | T114K | 0.0749 | 0.1 | 0.142 | – | – | – | 0.0577 | 0.104 | 0.0882 | – | – | 0.0304 | – | 0.051 | – | 0.0683 | –
7 | F6V | 0.0654 | 0.122 | – | – | – | – | 0.0652 | – | – | 0.0572 | – | 0.0705 | – | – | – | 0.0789 | –
8 | F6Q | 0.0288 | 0.132 | 0.0621 | 0.074 | 0.074 | – | 0.0666 | – | 0.0845 | 0.0557 | 0.0901 | 0.0618 | – | 0.0609 | – | 0.0608 | –
9 | C111W | 0.0703 | 0.121 | – | – | – | – | – | 0.0767 | 0.0687 | – | – | 0.0617 | – | 0.0586 | – | 0.0536 | 0.0751
10 | G28K | 0.0607 | 0.0836 | 0.0244 | 0.0712 | 0.0558 | – | – | 0.0947 | 0.0776 | – | – | 0.0666 | 0.0717 | 0.0558 | – | 0.0619 | 0.0745
11 | G28F | 0.0594 | 0.109 | 0.0616 | 0.0876 | 0.0648 | – | 0.0673 | 0.0958 | 0.056 | 0.0659 | 0.105 | 0.0622 | 0.0679 | 0.0659 | – | 0.057 | –
12 | P228Q | 0.0701 | – | 0.0638 | 0.0919 | 0.0648 | – | 0.0611 | 0.12 | 0.0677 | 0.068 | – | – | 0.0842 | – | 0.0615 | 0.0439 | 0.0808
13 | P228H | 0.0627 | – | – | 0.0773 | – | – | 0.0662 | 0.0902 | 0.0748 | – | – | 0.0729 | 0.0804 | 0.0638 | 0.0659 | 0.0706 | –
14 | E108D | 0.0961 | 0.085 | 0.0727 | 0.0766 | 0.0745 | 0.0597 | 0.061 | 0.126 | 0.0824 | 0.046 | – | 0.0946 | 0.0918 | 0.0796 | – | 0.0816 | 0.0678
15 | S130P | 0.042 | 0.0567 | 0.066 | 0.054 | 0.0497 | – | – | – | – | 0.0763 | – | 0.041 | – | – | – | 0.0441 | –
16 | T129V | 0.0722 | – | 0.0513 | 0.0711 | 0.08 | 0.0561 | – | 0.129 | 0.0664 | 0.047 | – | 0.0357 | – | 0.0714 | – | 0.0627 | 0.0747
17 | G214Y | 0.0551 | 0.0955 | – | – | 0.0664 | 0.0516 | – | – | – | – | – | – | 0.0664 | – | 0.0588 | – | –

Row | Variant | area with substrate ENLYEQS | area with substrate ENLYIQS | area with substrate ENLYKQS | area with substrate ENLYMQS | area with substrate ENLYNQS | area with substrate ENLYQQS | area with substrate ENLYRQS | area with substrate ENLYVQS | area with substrate ENLYWQS | area with substrate ENLYGQS | area with substrate ENLYLQS | area with substrate ENLYPQS | area with substrate ENLYSQS | area with substrate ENLYYQS | area with substrate ENLYDQS | area with substrate ENLYHQS | area with substrate ENLYTQS
18 | E231A | 0.0658 | 0.113 | 0.0769 | 0.0819 | 0.076 | – | 0.0668 | – | 0.0833 | – | 0.0748 | – | 0.0721 | 0.0958 | 0.0637 | 0.0863 | –
19 | K230P | 0.0711 | 0.105 | 0.0597 | 0.0657 | 0.0767 | – | 0.0566 | – | – | – | 0.0761 | 0.0742 | 0.0417 | 0.0422 | 0.0528 | 0.0594 | 0.0787
20 | V220C | 0.0676 | 0.117 | 0.0375 | 0.0866 | 0.0655 | 0.0581 | 0.0731 | 0.0974 | 0.0843 | 0.0298 | 0.0953 | 0.0751 | 0.0947 | – | 0.0667 | 0.0694 | 0.0737
21 | L191D | 0.0663 | 0.0676 | – | 0.0534 | 0.0506 | 0.0526 | 0.0631 | 0.0613 | – | 0.0619 | – | 0.0469 | 0.062 | – | – | 0.06 | 0.0581
22 | G8Q | 0.0573 | – | – | – | – | – | 0.0745 | – | – | 0.0636 | 0.0878 | 0.0493 | 0.1 | – | – | 0.0774 | –
23 | K221V | 0.0596 | 0.0983 | 0.0659 | – | 0.0618 | – | 0.0678 | – | 0.0724 | 0.0551 | – | 0.0608 | – | – | 0.0644 | 0.0599 | 0.0681
24 | V183N | 0.0527 | – | 0.0366 | 0.0757 | 0.0607 | – | – | – | 0.0611 | 0.0703 | 0.0855 | 0.0721 | – | – | – | 0.0632 | –
25 | E195M | 0.114 | – | – | 0.0778 | 0.0708 | – | 0.0636 | 0.117 | – | – | – | – | – | 0.0667 | – | 0.0692 | –
26 | P93A | 0.0708 | 0.119 | 0.0439 | 0.0845 | 0.0707 | 0.064 | – | 0.122 | 0.0744 | 0.0603 | 0.0766 | 0.0671 | 0.0671 | 0.0792 | – | – | –
27 | V217D | 0.0705 | – | 0.0552 | 0.0667 | – | – | – | – | 0.0696 | – | – | 0.0593 | 0.0605 | – | 0.0569 | 0.0699 | –
28 | S158I | 0.0572 | – | – | – | – | – | – | – | 0.0502 | 0.0576 | – | 0.0515 | – | – | – | 0.0558 | –
29 | W212Q | – | 0.0791 | 0.0618 | 0.0734 | 0.0635 | – | 0.0693 | 0.0808 | 0.087 | 0.0541 | – | 0.0509 | 0.0537 | 0.111 | 0.0672 | 0.0793 | –
30 | S154M | 0.0688 | 0.132 | 0.0653 | 0.0879 | – | – | – | 0.112 | 0.079 | 0.0677 | – | 0.054 | 0.0508 | – | – | 0.0744 | 0.055
31 | D91Q | 0.0694 | – | 0.0194 | – | 0.0566 | 0.0575 | – | – | – | 0.0622 | – | – | 0.0472 | 0.0355 | – | 0.0653 | 0.0856
32 | G213L | – | 0.0675 | 0.0613 | 0.0537 | 0.065 | – | 0.0522 | 0.0678 | – | 0.0765 | – | – | – | – | 0.0793 | 0.0704 | –
33 | Q105E | 0.0516 | – | – | 0.0879 | – | 0.0536 | 0.0716 | 0.121 | 0.0663 | 0.0673 | – | 0.0802 | 0.0846 | – | – | – | –
